# Test results taken from the supplement of paper PMC11417369.
# The other results are listed elsewhere or left out.
# Tested on: PfHDP1 homeodomain (GST-tagged)
# Experiment: gcPBM binding intensity (ln(normalized median fluorescence intensity)); higher = stronger DNA binding
# How it was run: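 Each value is the highest Masliner-normalised natural-log median intensity across replicate spots of either orientation of a probe. The probes were primer-extended double-stranded 36-bp intergenic genomic sequences on an Agilent 4 × 180k array, alongside negative controls, exposed for 1 h to GST-tagged P. falciparum DNA-binding domains expressed in E. coli. Bound protein was picked up with Alexa488 anti-GST antibody and scanned at 488 nm.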
row,Sequence,gcPBM binding intensity (ln)
1,AAAAAATATAAAAAAAGTACACAAAAACTACAAAAA [XGTACX_site2677],6.65
2,GGTAGTTATTATCTCCGTACTTATAAAGAAAAAAGG [XGTACX_site4674],6.57
3,GAATAAAAATTTTAATGTACATATTTTTTATTTATA [XGTACX_site8935],6.14
4,ATATTTTATATGTTCACACATACATAAACATATTTT [CACACA_site4948],6.53
5,TACAAATATATAAAATGTACATATATATACATATTA [XGTACX_site3029],6.13
6,TTTATTTTCATATGAACACACATATAAATATTATAA [CACACA_site7172],6.85
7,ATAACTTTATTTTCCTGTACACACATTTGACATATT [XGTACX_site7192],7.3
8,ATATATAATATAAGATGTACAATAAAATCTATATAT [XGTACX_site546],6.35
9,CATAAAATTGTGAAGTGTACATATTTTTAAATATAA [XGTACX_site8986],6.4
10,AGAAATATCTAATTGTGTACTCAAGAAAAAGTTACG [XGTACX_site372],6.61
11,CTTACAGACATATATACACACATGTATATTTTATAT [CACACA_site549],6.69
12,AAGAAGAAACGGAAAAGTACAAAGAAGAAATAAGTA [XGTACX_site3680],6.93
13,GAGGATGCCTATGGCACACATTATAAAACTGTCGCT [CACACA_site4322],5.87
14,ATGTTTTTAATTTATTGTACATTAATTTGTATTATT [XGTACX_site253],6.9
15,TTTTCTTTTCTCTTCTTTTTCTCCCATTATTAATCT [XGTACX_negctrl_site406],6.36
16,TTTTTATTATTTAAATGTACATATAAATATATATAT [XGTACX_site6870],7.71
17,ATTTCATTTATAAGGATATCTACTTTTTATTTTAAT [GTGCAC_negctrl_site59],6.31
18,TCTATCTTTTCCAAACGTACATTTTTTATATAAATT [XGTACX_site5352],7.15
19,AAACGAAAAAAATGGTGTACATTAAAATGAAAATTG [XGTACX_site7040],6.54
20,ATATATATCTTTTGTGTGCACATATATATAATATAT,10.9
21,AAAAAAAAAATATACACACACACATACACATAAATA [CACACA_site3808],7.11
22,TTATATTCTATTTATTGTACTTAAATATATATATAT [XGTACX_site6400],8.82
23,TATATATCGCATAAAACACACAAAAAAAAAATTAAA [CACACA_site7767],6.6
24,TATTTTCCCTCCATATGTACTTAATTATAAGCACAT [XGTACX_site4000],6.62
25,TTTATGTAAAAATATAGTACATATTAAAAGATAAGA [XGTACX_site8134],6.59
